Measured values: the supplement of paper PMC7726561
In all, about 1,100 sequences were measured (“thermal melting temperature (Tm) of peptide-HLA complex”: median about 58, lowest 2% from about 42 on). Some of the results follow.

target: HLA-A*02:01; assay: thermal melting temperature (Tm) of peptide-HLA complex; higher = more thermostable pHLA complex; settings: C1R-A*02:01
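Note: cell lysates heated 10 min at 37–73 °C, remaining pHLA pulled down with pan-class I antibody, peptides quantified by DIA-MS versus 37 °C, Tm where half the complex is lost.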

Sequence | thermal melting temperature
QLYEFDIKV | 58.1 °C
VIINQIYEA | 58 °C
FIFEKKLAQA | 49.6 °C
FLTEMELDRV | 58.4 °C
RQLEEEGITFV | 60.1 °C
SLQEEIAKL | 53.4 °C
SLLPGNLVEKV | 60.2 °C
SLNHLLNYV | 59.4 °C
AMAHVAGFTV | 45.3 °C
GLLENIPRV | 64.8 °C
SLFPGKLEVV | 61.8 °C
SLKEIVINV | 56.7 °C
YLWPRGSPAL | 41.3 °C
FLPQKIIYL | 53.3 °C
VLADQEVRL | 58.4 °C
NVPDVYTQI | 47.9 °C
KQVEEIFNL | 62.8 °C
TLLDPNEKYLL | 61.3 °C

Sequence | thermal melting temperature
GLADKVYFL | 65.4 °C
ALSEKIVSV | 56.9 °C
KLIDGQVIQL | 58.3 °C
VLMNQPPQIAP | 44.3 °C
ILLEKEAEL | 52.6 °C
KLLEPSSPQFV | 50.6 °C
VLFENTDSVHL | 58.5 °C
LLLPDQPPYHL | 44.1 °C
KLDQVIIHV | 60.5 °C
SVTSEGIKAV | 46 °C
ALGPGVPHI | 58 °C
IIMLEALERV | 46.6 °C
SMLDDLRNV | 60.9 °C
KLADISINYV | 62.5 °C
KQVSDLISV | 54.3 °C
HLLSDELLL | 56.8 °C
ILDAGGHNV | 55.9 °C
GLNEEIARV | 64 °C
